In PubChem BioAssay AID360 (National Center for Advancing Translational Sciences (NCATS), 2006):
In all, about 48,000 compounds went through this assay and about 550 (1.1%) were called active. About 4% were inconclusive and are not listed. Rule as the data show it: active = potency below about 15 µM; inconclusive = mostly about 16 µM to 33 µM; inactive = weaker than that. The list shows a part of the results.

Molecular target: Lysosomal acid glucosylceramidase (Homo sapiens) (UniProt P04062)
Test: Glucocerebrosidase;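 also: the screen sought inhibitors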
Conditions: purified enzyme, resorufin glucoside fluorescence (screen aimed at inhibitors), 20 min
Outline: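 Compounds titrated against 0.2 nM normal enzyme, 30 uM resorufin beta-D-glucopyranoside substrate, citrate/phosphate buffer with taurocholate and tween-20, pH 5.9. Reaction ran 20 min at room temperature; fluorescence (Ex 548/Em 600) gave AC50.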
Potency is read from the fitted curve at half-maximal effect.

Sequence of UniProt P04062 (P04062 whole entry, looked up): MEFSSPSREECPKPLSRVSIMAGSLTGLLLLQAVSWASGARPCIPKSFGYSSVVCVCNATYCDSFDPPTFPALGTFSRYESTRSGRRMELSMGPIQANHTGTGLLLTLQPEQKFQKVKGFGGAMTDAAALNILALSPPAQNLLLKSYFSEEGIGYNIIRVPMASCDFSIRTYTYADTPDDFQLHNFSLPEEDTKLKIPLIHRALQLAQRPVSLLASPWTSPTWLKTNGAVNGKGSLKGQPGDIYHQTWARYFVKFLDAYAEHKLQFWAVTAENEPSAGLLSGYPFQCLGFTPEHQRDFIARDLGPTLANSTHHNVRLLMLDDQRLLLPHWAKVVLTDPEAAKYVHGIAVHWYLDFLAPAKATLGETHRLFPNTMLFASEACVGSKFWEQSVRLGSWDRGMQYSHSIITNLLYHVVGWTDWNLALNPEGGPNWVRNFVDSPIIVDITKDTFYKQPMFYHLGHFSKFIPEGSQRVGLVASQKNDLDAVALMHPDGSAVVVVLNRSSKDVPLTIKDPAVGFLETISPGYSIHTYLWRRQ

Potency, inactive:
Cn1c(C(=O)NCCCN2CCCC2=O)cc2c(=O)n3ccccc3nc21 > 76.9 µM, COc1ccccc1NC(=O)CSc1nnc(Cc2ccccc2)o1 > 76.9 µM, N/C(=N/O)c1nc(N2CCCC2)nc(N(c2ccccc2)c2ccccc2)n1 > 76.9 µM, CCCNC(=O)c1c(N)n(-c2cc(OC)cc(OC)c2)c2nc3ccccc3nc12 > 76.9 µM, O=C(CN1C(=O)COc2ccccc21)N1CCN(c2ccccc2F)CC1 > 76.9 µM, COC(=O)c1ccccc1NC(=O)CSc1nnc(-c2ccoc2C)n1C > 76.9 µM, O=C(c1ccc(Cl)cc1)c1ccccc1C(=O)N1CCOCC1 > 76.9 µM, COc1ccc(NC2CC(=O)N(c3ccccc3)C2=O)cc1 (stereo unspecified) > 76.9 µM, O=C(CN(C(=O)c1ccco1)c1cccc(F)c1)NCc1ccc(F)cc1 > 76.9 µM, Cc1ccc(CNC(=O)CCc2c(C)nc3ncnn3c2C)cc1 > 76.9 µM, CCOC(=O)N1CCC(NC(=O)c2ccc3c(=O)n4c(nc3c2)CCCC4)CC1 > 76.9 µM, Cc1ccc(S(=O)(=O)NCC(=O)N(CC(=O)NCC2CCCO2)Cc2ccccc2)cc1 (stereo unspecified) > 76.9 µM, CCN(C(=O)c1cn(C)c(=O)c2cc(OC)c(OC)cc12)c1cc(OC)ccc1OC > 76.9 µM, CN1C(=O)C2(OCC(COc3ccc(Cl)cc3)O2)c2ccccc21 (stereo unspecified) > 76.9 µM, COC(=O)c1ccccc1NC(=O)C1CCCN(S(=O)(=O)c2ccc(F)cc2)C1 (stereo unspecified) > 76.9 µM, CC(C)C(c1nnnn1C1CCCC1)N1CCN(C(=O)c2ccco2)CC1 (stereo unspecified) > 76.9 µM, Cn1c(COc2ccccc2)nnc1SCCC(=O)Nc1ccccc1 > 76.9 µM, Cc1nc(-c2ccccc2)cc(=O)[nH]1 > 76.9 µM, Cn1c(=O)c(C(=O)Nc2cccnc2)c(O)c2ccccc21 > 76.9 µM, N#CCSc1nc2ccccc2c(=O)n1-c1ccccc1 > 76.9 µM, Cc1cc(C)n(-c2nc(Nc3ccccc3)nc(-n3nc(C)cc3C)n2)n1 > 76.9 µM, CN(C(=O)CSc1ncccc1C(=O)O)c1ccccc1 > 76.9 µM, CCN1CCN(Cc2nc(N)nc(Nc3ccc(C)c(C)c3)n2)CC1 > 76.9 µM, CCOCCCN(CCC#N)S(=O)(=O)c1ccc(S(=O)(=O)N2CCCC2)cc1 > 76.9 µM, Cn1c(=O)c2[nH]c(Nc3ccccc3)nc2n(C)c1=O > 76.9 µM, N#CCSc1nc2cc(C(=O)N3CCC(C(N)=O)CC3)ccc2c2nc3ccccc3n12 > 76.9 µM, COc1ccccc1CNC(=O)CCn1c(=O)[nH]c2ccsc2c1=O > 76.9 µM, O=C(c1ccc(S(=O)(=O)N2CCC(c3nc4ccccc4[nH]3)CC2)cc1)N1CCOCC1 > 76.9 µM, Cc1sc2nc(CN(C(=O)c3cccs3)C3CCCC3)[nH]c(=O)c2c1C > 76.9 µM, CC(C)NC(=O)C1CCN(C(=O)N(C)C)CC1 > 76.9 µM, NC(=O)NC(Cc1ccccc1)C(=O)O (stereo unspecified) > 76.9 µM, CC1Cc2ccccc2N1C(=O)CCS(=O)(=O)c1cccs1 (stereo unspecified) > 76.9 µM, NCCOc1ccccc1-c1ccccc1, COc1ccc(CCNC(=O)C2CCCN2C(=O)NC2CCCCC2)cc1OC (stereo unspecified) > 76.9 µM, CC(=O)NC(Cc1ccccc1)C(=O)N1CCN(C(=O)c2ccco2)CC1 (stereo unspecified) > 76.9 µM, O=C(NCCN1CCOCC1)c1c(F)c(F)c(F)c(F)c1F, Cc1cc2ncn(CCOc3ccccc3C#N)c2cc1C > 76.9 µM, O=C(CSc1n[nH]c(-c2ccccc2O)n1)N1CCCc2ccccc21 > 76.9 µM, CCn1c(=O)cc(OCC(=O)Nc2cccnc2)c2ccccc21 > 76.9 µM, C=CCNC(=O)C1CC(=O)N(c2ccc(OCC(=O)Nc3cccc(OC)c3)cc2)C1 (stereo unspecified) > 76.9 µM, O=C(NCCN1CCOCC1)c1cc(-c2ccco2)on1 > 76.9 µM, Cc1nc(CCNC(=O)c2ccccc2)cs1 > 76.9 µM, CCS(=O)(=O)NCCc1cc2ccc(C)cc2[nH]c1=O > 76.9 µM, Cc1[nH]nc2c1C1(CCN(C(=O)OCc3ccccc3)CC1)C(C#N)=C(N)O2 > 76.9 µM, Cc1ccc(C(C(=O)NC2CCCCC2)N(Cc2cccnc2)C(=O)C2COc3ccccc3O2)o1 (stereo unspecified), CCCc1c(O)nc(SCc2ccccc2)[nH]c1=O > 76.9 µM, CCCc1cc(=O)n2[nH]c(NCc3c(Cl)cccc3Cl)nc2n1 > 76.9 µM, COCCNC(=O)CSc1nc(-c2ccc(OC)c(OC)c2)cc(C(F)(F)F)n1 > 76.9 µM, COc1ccc(-c2nc(C#N)c(N3CCOCC3)o2)cc1OC > 76.9 µM, COc1ccc(Cc2nnc(SC)[nH]c2=O)cc1OC > 76.9 µM, O=C(NC1CCCCC1)C1c2ccccc2C(=O)N1Cc1ccco1 (stereo unspecified) > 76.9 µM, COc1cccc(N2CCN(C(=O)c3ccc(N4C(=O)NC5CC4(C)Oc4ccccc45)cc3)CC2)c1 (stereo unspecified) > 76.9 µM, Cc1ccc(S(=O)(=O)NCC(=O)OCC(=O)c2cccs2)cc1 > 76.9 µM, O=C(CN(Cc1ccccc1)C(=O)c1ccco1)NCc1ccc(F)cc1 > 76.9 µM, NC(=O)c1ccc(NC(=O)CCCc2nc(-c3ccccc3Cl)no2)cc1 > 76.9 µM, COc1ccccc1CNC(=O)C1CCCN(S(C)(=O)=O)C1 (stereo unspecified) > 76.9 µM, CCCCCCOC(=O)C(C#N)c1nc2ccccc2nc1N1CCOCC1 (stereo unspecified) > 76.9 µM, Cn1c(CN2CCCCC2)nc2cc(NC(=O)c3ccccc3)ccc21 > 76.9 µM, CC(C)(C)NC(=O)CSc1nnc(-c2ccco2)n1Cc1ccco1 > 76.9 µM, O=C(COC(=O)C1CC(=O)N(c2ccc3c(c2)OCCO3)C1)NC1CCCc2ccccc21 (stereo unspecified) > 76.9 µM, CCC(C)n1c(SCC(=O)NC(=O)Nc2ccc3c(c2)OCCO3)nc2ccccc2c1=O (stereo unspecified) > 76.9 µM, Cc1ccc(N(CC(=O)NC2CCCC2)C(=O)CCCC(=O)Nc2ccccn2)cc1C > 76.9 µM, COc1ccc(C(=O)N2CCc3cc(OC)c(OC)cc3C2)cc1OC > 76.9 µM, O=C(CSc1ncnc2sc3c(c12)CCCC3)c1ccco1 > 76.9 µM, CC1CN(Cc2nc3c(c(=O)[nH]c(=O)n3C)n2CCCc2ccccc2)CC(C)O1 (stereo unspecified) > 76.9 µM, Cn1c(C(=O)NCc2ccc3c(c2)OCO3)cc2sccc21 > 76.9 µM, COCCNC(=O)COC(=O)CSCc1nc2ccccc2s1 > 76.9 µM, O=S(=O)(NCc1cccnc1)c1cccs1 > 76.9 µM, CCOC(=O)C1=C(C)N(c2ccccc2)C(=O)C1CC(=O)O (stereo unspecified) > 76.9 µM, Cc1cnc(Nc2nc3ccccc3o2)nc1C(=O)Nc1cccc(C(F)(F)F)c1 > 76.9 µM, O=C(CCc1ccccc1)n1nc(-c2ccccc2)nc1NCc1ccco1 > 76.9 µM, COc1cc(OC)c(OC)cc1CNCCNC(=O)c1nonc1N > 76.9 µM, Nn1c(-c2ccco2)n[nH]c1=S > 76.9 µM, CCC(=O)Nc1nonc1-c1nc2ccccc2n1N(C(=O)CC)C(=O)CC > 76.9 µM, O=C(CCCSc1nc(-c2ccco2)cc(C(F)(F)F)n1)Nc1ccc2c(c1)OCO2 > 76.9 µM, O=C(N1CCCCCC1)N1CCN(C(=O)N2CCCCC2)CC1 > 76.9 µM, O=C(Nc1ccc(CN2CCOCC2)cc1)c1cccs1 > 76.9 µM, COCCOC(=O)C(C#N)c1nc2ccccc2nc1N1CCN(Cc2ccccc2)CC1 (stereo unspecified) > 76.9 µM, CCOC(=O)c1ccc(N2C(=O)c3n[nH]c(C)c3C2c2ccc(OC)cc2)cc1 (stereo unspecified) > 76.9 µM, Cc1c(C(=O)O)oc2ccc(S(=O)(=O)NCc3ccccc3)cc12 > 76.9 µM, CCOC(=O)c1c2n(c3ccc(O)cc13)CCCCC2 > 76.9 µM, CCOC(=O)CN(C(=O)CN1CCOCC1)c1ccc(Br)cc1 > 76.9 µM, O=C(c1ccccc1)N1CCN(CC#CC2(O)CCCCC2)CC1 > 76.9 µM, O=S(=O)(c1ccccc1)c1nc(-c2ccco2)oc1NCCCN1CCOCC1 > 76.9 µM, CCC(=O)c1ccc(N2CCN(C(=O)Cc3ccccc3)CC2)c(F)c1 > 76.9 µM, CSc1ccc(S(=O)(=O)NCCOc2ccccc2C)cc1 > 76.9 µM, CCc1ccc(OCc2nc(-c3ccccn3)no2)c(Br)c1 > 76.9 µM, O=C(CSc1nnnn1-c1ccccc1)N1CCN(C(=O)c2ccco2)CC1 > 76.9 µM, N#Cc1cc2c(nc1SCC(=O)Nc1sc3c(c1C#N)CCC3)CCCCC2 > 76.9 µM, c1ccc(OCCSc2nnnn2-c2ccccc2)cc1 > 76.9 µM, Cc1nc2nc(C)c(CCC(=O)NCCCN3CCN(c4cccc(Cl)c4)CC3)c(C)n2n1 > 76.9 µM
